From PubChem BioAssay AID1508623 (National Center for Advancing Translational Sciences (NCATS), 2021)
Among all 48,000 compounds or so, about 450 (0.94%) were called active. About 19% were inconclusive and are not listed. Calls come from the whole dose curve; as a rule, active = well fitted inhibition curve with a large enough effect; inconclusive = small, poorly fitted or top-dose-only effect; inactive = no such curve, though single readings can be large or run the other way. The list shows a part of the results.

Experiment: Primary qHTS for Identification of Small Molecule Inhibitors of Huntingtin Promoter Activity; note: nearly all actives have a fitted effect of over 50% in size
Conditions: HEK293 HTT promoter firefly luciferase reporter (activity 0% = vehicle and -100% = no light), 24 h; series mostly up to 57.5 µM; activity change, negative = inhibition: at the top concentration
Summary of the method: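 Firefly luciferase signal from promoter-reporter HEK293 cells was scaled between vehicle (0%) and zero RLU (-100%). Compounds were tested at final concentrations of up to 57.5 uM over 24 h at 37 degrees C. PTC124 at 50 uM final served as control inhibitor.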

Activity change, negative = inhibition, inactive:
COc1cc(CNC(=O)c2cnc(SC)nc2-c2ccccc2)cc(OC)c1OC -1.65%, Cc1ccc(S(=O)(=O)C(CNS(=O)(=O)c2cc(F)ccc2F)c2cccs2)cc1 (stereo not drawn) -30.5%, O=C(O)c1ccccc1C(=O)Nc1ccc(Br)c2cccnc12 12.3%, Cc1ccc(NC(=O)C2CCN(S(=O)(=O)c3cccc4nsnc34)CC2)cc1F -19.4%, CCCNC(=O)c1ccc2c(c1)nc1n2CCCCC1 56.5%, COc1cccc(CNC(=O)Cn2ncn3nc(-c4cccs4)cc3c2=O)c1 -13%, COc1ccc(NC(=O)C(=O)NCCc2csc3nc(-c4ccccc4F)nn23)cc1OC 6.2%, CC(=O)c1ccc(NS(=O)(=O)c2ccc3c(c2)NC(=O)CCS3)cc1 -10.5%, CCn1cc2nc(SCc3ccccc3Cl)n(Cc3ccc(OC)cc3)c(=O)c2n1 -24.9%, COc1cccc(CNC(=O)c2ccc(-c3nc(CSc4ccccc4)c(C)o3)cc2)c1 -11.7%, CC(=O)Nc1ccccc1-c1nc2ccccc2n(C(C)C(=O)Nc2ccccc2C(F)(F)F)c1=O (stereo not drawn) -18.2%, COc1ccc(-c2c(C)c3ccc(O)c(CN4CCC(C)CC4)c3oc2=O)cc1OC -18.3%, CN1CCN(c2ncnc3c2cnn3-c2cccc(Cl)c2)CC1 18.8%, COc1cc(OC)c(OC)cc1/C=C/c1nc2cc3ccccc3cc2c(=O)n1-c1ccccc1Br -21.6%, Cc1ccc(CNC(=O)c2cc(=O)c3cc(C)ccc3o2)cc1 -18.9% [at 11.5 µM], COc1cc2c(c(OC)c1)C(c1cccc(F)c1F)CC(=O)N2 (stereo not drawn) -16.2%, CCOC(=O)c1c(NC(=O)c2cc(=O)c3cc(C)ccc3o2)sc2c1CCCC2 6.42% [at 11.5 µM], Cc1ccc(Cn2c(C(=O)O)c(CNCc3ccc(C)o3)c3ccc(C)cc32)cc1 -23.6%, NC(=O)c1cnccn1, CC(C)Cn1cc(NC(=O)NCc2cccc(Cl)c2)c2ccccc2c1=O -18.8%, COc1ccc(NC(=O)c2cccc(N3CCCS3(=O)=O)c2)c(OC)c1 6.87%, O=C(NCCC1=CCCCC1)c1ccc2c(c1)sc1nc(-c3ccc(F)cc3)cn12 8.11%, CCN(CC)c1ccc(NC(=O)CN2CCN(CC(=O)Nc3ccc(Cl)cc3)CC2)cc1 -28.4%, Cc1ccc2oc(C(=O)Nc3sc4c(c3C(=O)NCC3CCCO3)CCC4)cc(=O)c2c1 (stereo not drawn) 6.42% [at 11.5 µM], COCCNC(=O)Cn1nc(-c2ccccc2)c2ccccc2c1=O -18.8%, COc1cc(OC)c(C2CC(=O)Nc3ccc4ccccc4c32)cc1OC (stereo not drawn) -8.55%, Nc1nc(N)c(N=O)c(OCC2CCCCC2)n1 -14.9%, COC(=O)c1ccccc1NC(=O)c1nc(-c2ccc(C)cc2)n2c1CCCCC2 -15.7%, CC(NC(=O)c1cc2c(=O)n3ccccc3nc2n(C(C)C)c1=N)c1ccccc1 (stereo not drawn) -20.8%, CC(NC(=O)Cn1c(=O)oc2cc(S(=O)(=O)N3CCCCCC3)ccc21)c1ccccc1 (stereo not drawn) -13.8%, Cc1cccc(OC(=O)CSc2nnc(-c3ccc4c(c3)OCO4)o2)c1C -11.2%, Cc1ccc(C2=NN(CC(=O)NCCc3ccccc3)C(=O)CC2)cc1 11.9%, COc1cccc(Cn2c(=O)n(CC3CCC(C(=O)NC(C)C)CC3)c(=O)c3sccc32)c1 (stereo not drawn) 5.03%, Cc1cn(C)c(CC(=O)NCc2ccc(Cl)cc2)c1C(=O)O -5.94%, COc1cc(NC(=O)CN2C(=O)CCc3cc(Br)ccc32)cc(OC)c1OC -17.8%, Cc1cccc(-c2noc(-c3cc(C(C)C)[nH]n3)n2)c1 25.6%, CCOc1ccc(C2c3c(-c4cc(C)ccc4O)n[nH]c3C(=O)N2Cc2cccnc2)cc1OCC (stereo not drawn) -26.5%, COc1ccccc1NC(=O)CC(C)n1nc(C)cc1C (stereo not drawn) 11%, CCOC(=O)c1ccc(NC(=O)CSc2nc3c(c(=O)[nH]2)CN(Cc2ccccc2)CC3)cc1 -21.9%, COc1ccc(OC)c(CCNC(=O)CCCn2c(=O)c3cccn3c3ccc(F)cc32)c1 -2.44%, Cc1cc(F)ccc1NC(=O)CCS(=O)(=O)c1cc2c(cc1C)NC(=O)CO2 -18.3%, COc1ccccc1Nc1ncc2c(n1)CCN(Cc1ccc(C)s1)C2 3.96%, Cc1ccc2c(=O)c(C(=O)c3cccc(Cl)c3)cn(CC(=O)NC3CCCCC3)c2n1 -1.29%, Cc1ccc(N(CC(=O)N2CCN(c3ccc(F)cc3)CC2)S(=O)(=O)c2c(C)noc2C)cc1 -24.1%, COc1cccc(CNC(=O)Cn2ncc3c(=O)oc4ccccc4c32)c1 -5.68%, Cc1ccc(CSc2cn(CC(=O)N3CCCCCC3)c3ccccc23)cc1 -14.3%, CCCN(Cc1cc2cccc(C)c2[nH]c1=O)C(=O)c1cccc(Cl)c1 -15.7%, COCCCNC(=O)c1ccc(CSc2nc3cccnc3n2Cc2ccc(OC)cc2)cc1 -10.6%, Cc1cc(C)c(S(=O)(=O)Nc2ccc3oc4c(c3c2)CCCC4)cc1C -31.5%, CCOC(=O)c1ccccc1NC(=O)CSc1c(C)cnc2c1c(=O)n(C)c(=O)n2C -3.81%, Cc1nc2c(c(C)c1CCC(=O)N1CCN(c3ccccc3)CC1)c(=O)n(C)c(=O)n2C -13%, COc1ccc(C2C=C(c3ccccc3)Nc3nc(NS(=O)(=O)c4ccccc4)nn32)cc1 (stereo not drawn) -8.29%, O=C(Nc1cccc(Cl)c1Cl)c1cc(S(=O)(=O)N2CCCCC2)ccc1F -19.3%, COc1cccc(NC(=O)c2c(-c3ccc(C)cc3)nnc3ccccc23)c1 32.2%, Cc1ccc(C)c(Cn2c(=O)n(-c3ccc(Cl)cc3)c(=O)c3c4c(sc32)CCC4)c1 -4.54%, O=C(CCNNC(=O)c1ccncc1)NCc1ccccc1 -6.19%, COc1ccc(OC)c(S(=O)(=O)NCCc2sc(-c3cccnc3)nc2C)c1 -3.74%, CC(=O)OC1=CN(Cc2ccccc2)S(=O)(=O)c2ccccc21 -15.3%, CCCN(Cc1cccs1)C(=O)Nc1cc(C)ccc1OC -7.3%, COc1ccccc1N1CCN(c2nc3ccc(C(=O)c4ccccc4)cc3n3c(C)nnc23)CC1 4.99%, CCc1nn(CC(=O)Nc2ccc(C)c(F)c2)c(=O)c2cc3cc(C)ccc3n12 26.6%, COc1ccc(OC)c(CNC(=O)C2CCN(S(=O)(=O)N3CCCCC3)CC2)c1 -16.6%, O=C(COc1ccc(F)cc1)Nc1ccc2nc(SCC(=O)N3CCCC3)sc2c1 -28.2%
